According to PubChem BioAssay AID2147 (National Center for Advancing Translational Sciences (NCATS), 2009):
“And” between values parts separate entries of the source, which are not always exact repeats. Equal values may be shown once. About 3,600 (1.6%) of roughly 230,000 compounds were called active. This list was built around the results that the source calls inconclusive (neither active nor inactive); the mix of calls is not that of the screen. Calls follow the shape of the dose curve; as a rule, active = well fitted inhibition curve with a large enough effect (not every such curve was filed as active); inconclusive = small, poorly fitted or top-dose-only effect, or another doubt; inactive = no such curve, though single readings can be large or run the other way. A potency beside an inconclusive call is a rough fit, not a confirmed value. A structure can be active in one record and inactive in another.

Target: Lysine-specific demethylase 4E (Homo sapiens) (UniProt B2RXH2)
Sequence of UniProt B2RXH2 (B2RXH2 whole entry, looked up, the tested form may be a part): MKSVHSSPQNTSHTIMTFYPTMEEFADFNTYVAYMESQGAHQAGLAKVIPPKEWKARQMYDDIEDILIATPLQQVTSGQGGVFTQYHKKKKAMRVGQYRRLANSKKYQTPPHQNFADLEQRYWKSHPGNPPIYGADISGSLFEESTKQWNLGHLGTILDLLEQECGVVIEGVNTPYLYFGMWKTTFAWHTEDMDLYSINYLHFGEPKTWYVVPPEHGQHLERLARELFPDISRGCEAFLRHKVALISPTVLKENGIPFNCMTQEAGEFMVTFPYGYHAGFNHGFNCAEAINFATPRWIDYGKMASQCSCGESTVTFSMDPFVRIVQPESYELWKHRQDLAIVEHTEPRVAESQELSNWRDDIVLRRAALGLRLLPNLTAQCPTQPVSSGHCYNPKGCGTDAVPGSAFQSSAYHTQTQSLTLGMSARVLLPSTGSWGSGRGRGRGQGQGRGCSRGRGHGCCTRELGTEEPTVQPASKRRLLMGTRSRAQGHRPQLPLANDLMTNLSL
Assay: qHTS Assay for Inhibitors of Human Jumonji Domain Containing 2E (JMJD2E)
Settings: JMJD2E catalytic domain, FDH-coupled NADH fluorescence (FDH is formaldehyde dehydrogenase); series mostly up to 57.1 µM
Also: nearly all actives have a fitted effect of over 50% in size.
Potency is read from the fitted curve at half-maximal effect; tags tell the direction and shape of the fitted curve.

Row | Compound | Potency
1 | O=C(COC(=O)c1cc(-c2cccs2)nn1-c1ccccc1)Nc1ccc(Cl)c([N+](=O)[O-])c1 | inactive
2 | Nc1nnc(-c2ccc(F)cc2)s1 | inactive
3 | CCC(C)n1cnc2c(c1=O)c1nc3ccccc3nc1n2Cc1ccc2c(c1)OCO2 (configuration not stated) | inconclusive: 39.8 µM [inhibitor, single point]
4 | CC(C)Oc1ccc(-c2nc(NCC3CCCO3)c3ccccc3n2)cc1 (configuration not stated) | inconclusive: 25.1 µM [inhibitor, partial curve]
5 | O=C1C(=O)N(c2cccc(Cl)c2)C(c2ccccc2[N+](=O)[O-])/C1=C(\O)c1ccccc1 (configuration not stated) | inactive
6 | COc1ccc(-c2nc3ccccn3c2/N=C/c2ccc(OC)c(OC)c2)cc1O | inconclusive: 37.7 µM [inhibitor, single point]
7 | Cc1sc2ncn(CC(=O)OC(C)C)c(=O)c2c1C | inactive
8 | Cc1cc(C)c2cc(C(=O)Nc3ccccc3)[nH]c2c1 | inactive
9 | Cc1ccc(NS(=O)(=O)c2ccc(Br)cc2)nc1 | inconclusive: 28.2 µM [inhibitor, partial curve]
10 | C/C(CCC(=O)OC[C@H]1O[C@H](C#Cc2ccccc2)C=C[C@@H]1Oc1ccc(C)cc1)=N\O[C@@H](C)CN1CCCCc2nc(C)c(C)cc21 | inconclusive: 39.8 µM [inhibitor, single point]
11 | Cc1c(Nc2scc(-c3ccccc3)[n+]2-c2ccccc2)c(=O)n(-c2ccccc2)n1C | inactive
12 | COc1ccc(NC(=O)N(CCN2CCCC2)Cc2cc3cc(OC)c(OC)cc3[nH]c2=O)cc1 | inconclusive: 25.1 µM [inhibitor, single point]
13 | CCC1(C)Cc2c(sc(NC(=S)NC(=O)c3ccccc3)c2C#N)CO1 (configuration not stated) | inactive
14 | CCCCC1=CC2=CC(=O)C(C)(OC(=O)CC)C(=O)C2=CN1C1CCCCC1 (configuration not stated) | active: 28.2 µM
15 | COc1ccc(/C=C(\CC(=O)O)c2nc3ccccc3s2)cc1O | inconclusive: 35.5 µM [inhibitor, single point]
16 | COCCCC1CCN(C(=O)CCc2nnc(CCCCc3ccccc3)o2)CC1 | inconclusive: 31.6 µM [inhibitor, single point]
17 | O=C(c1ccc(N2CCN(C3CC(=O)N(Cc4cccs4)C3=O)CC2)cc1)c1cccnc1 (configuration not stated) | inactive
18 | COc1ccc(/C=N/NC(=O)c2ccc(O)cc2O)cc1CSc1ccccn1 | inconclusive: 7.08 µM [inhibitor, single point]
19 | O=C(Cn1nnc2ccccc21)NNC(=O)c1ccccc1 | inactive
20 | O=C(CCc1ccccc1)Nc1nc2ccc(S(=O)(=O)N3CCOCC3)cc2s1 | inactive
21 | Cc1cc(O)c(C(C)C)cc1N=Nc1ccccc1C(=O)O | inactive
22 | CCOC(=O)C1(CC2CCCCO2)CCN(Cc2nc(-c3cccs3)oc2C)CC1 (configuration not stated) | inconclusive: 35.5 µM [inhibitor, partial curve]
23 | COc1ccc(OC)c(C(=O)CN2CCN(S(=O)(=O)c3ccc(Br)cc3)CC2)c1 | inconclusive: 35.5 µM [inhibitor, single point]
24 | COC(=O)c1ccc(N2CCCCC2)c(N)c1 | inconclusive: 25.1 µM [inhibitor, single point]

Row | Compound | Potency
25 | COc1ccc(C2C(C#N)=C(N)Oc3cc(C)n(Cc4ccco4)c(=O)c32)cc1 (configuration not stated) | inactive
26 | Cc1ccc2nc(NC(=O)COC(=O)c3ccncc3)sc2c1 | inconclusive: 28.2 µM [inhibitor, partial curve]
27 | Cc1sc2nc(-c3ccncc3)[nH]c(=O)c2c1-c1ccccc1 | inactive
28 | O=c1c(C=NCc2cccnc2)c(C(F)(F)F)[nH]n1-c1nc2ccccc2s1 | inconclusive: 22.4 µM [inhibitor, single point]
29 | CN(C1=C(N2CCOCC2)C(=O)c2ccccc2C1=O)c1ccccc1 | inactive
30 | COc1ccc(N=C2S/C(=C\c3ccco3)C(=O)N2CC(C)C)cc1 | inactive
31 | Cc1ccc(/C=C/C(=O)Nc2sc3c(c2C#N)CCCC3)o1 | inactive
32 | CC(C)=CCC/C(C)=C/COc1ccc2ccc(=O)oc2c1 | inconclusive: 35.5 µM [inhibitor, single point] and inconclusive: 28.2 µM [inhibitor, partial curve]
33 | Cc1ccc2[nH]c(=O)c3cc(C(=O)N(C)Cc4ccco4)sc3c2c1 | inconclusive: 25.1 µM [inhibitor, partial curve]
34 | CC(C)(C)c1ccc(-c2cc(C(=O)NNC(=O)Nc3ccccc3)c3ccccc3n2)cc1 | inconclusive: 39.8 µM [inhibitor, single point]
35 | Cc1[nH][nH]c(=O)c1C(c1c(C)[nH][nH]c1=O)c1cn(Cc2cccc3ccccc23)c2ccccc12 | inactive
36 | CC1=CC(C)(C)N(C(=O)CSc2ncn[nH]2)c2ccccc21 | inactive
37 | O=C(OCc1nnc(-c2ccccc2)o1)c1ccc(S(=O)(=O)NCc2ccco2)cc1 | inactive
38 | CNS(=O)(=O)c1ccc2nc(NC(=O)/C=C/c3ccco3)sc2c1 | inconclusive: 11.2 µM [inhibitor, partial curve]
39 | CC(C)COC(=O)Cc1c(O)c2ccccc2[nH]c1=O | inconclusive: 25.1 µM [inhibitor, partial curve]
40 | COc1ccc(C2NC(=O)c3ccccc3O2)c(OC)c1OC (configuration not stated) | inconclusive: 28.2 µM [inhibitor, partial curve]
41 | CCc1nnc(NC(=O)CSc2nc3c(cc2C#N)CCCC3)s1 | inconclusive: 3.16 µM [inhibitor, partial curve]
42 | COC(=O)c1c(NC(=O)c2ccc(C)c(S(=O)(=O)Nc3ccccc3C)c2)sc2c1CCCC2 | inconclusive: 6.31 µM [inhibitor, single point]
43 | Cc1nnc(SCC(=O)c2ccc(Br)cc2)s1 | inactive
44 | O=C(Nc1nc2ccc(S(=O)(=O)N3CCCCC3)cc2s1)c1ccncc1 | inactive
45 | Cc1ccc(/C=C2/SC(=S)N(CCCC(=O)Nc3ccc(O)cc3)C2=O)cc1 | inactive
46 | COC(=O)Cn1c(=O)cnc2ccccc21 | inconclusive: 31.6 µM [inhibitor, single point]
47 | N#CCSc1ccc(-c2nc3ccccc3[nH]2)cn1 | inconclusive: 22.4 µM [inhibitor, partial curve]
